Out of some 48,000 compounds screened, about 450 (0.94%) were called active. About 19% were inconclusive and are not listed. Calls come from the whole dose curve; as a rule, active = well fitted inhibition curve with a large enough effect; inconclusive = small, poorly fitted or top-dose-only effect; inactive = no such curve, though single readings can be large or run the other way. This is one part of the list.
Test: Primary qHTS for Identification of Small Molecule Inhibitors of Huntingtin Promoter Activity; note: nearly all actives have a fitted effect of over 50% in size
Details: HEK293 HTT promoter firefly luciferase reporter (activity 0% = vehicle and -100% = no light), 24 h; series mostly up to 57.5 µM; activity change, negative = inhibition: at the top concentration
How it was run: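 Quantitative HTS used concentration series of up to 57.5 uM final on HEK293 luciferase reporter cells, 24 h at 37 degrees C. Readout was Dual-Glo firefly luminescence.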
Potency is the fitted concentration of half-maximal effect.

Activity change, negative = inhibition, inactive:
COc1ccc(-c2nc(CSc3nncn4c3cc3oc(C)cc34)c(C)o2)cc1 0.484%
Cc1ccc(-n2nnc(-c3nc(-c4cccs4)no3)c2N)cc1C 42.1%
COc1cc(NC(=O)CN2C(=O)c3ccccc3Sc3ccc(C(=O)N4CCCC4)cc32)cc(OC)c1 -4.86%
CCOC(=O)c1[nH]c2ccccc2c1NC(=O)c1ccccc1F -12.2%
CCN1CCN(CCCNC(=O)CS(=O)(=O)Cc2nc(-c3cccc(OC)c3)oc2C)CC1 -2.89%
Cc1oc2ncnc(N3CCCCC3)c2c1C(=O)NCC1CCN(Cc2cccc(F)c2)CC1 0.749%
COC(=O)c1c(Cl)c(Cl)c(C(=O)OC)c(Cl)c1Cl 9.32% [at 116 µM]
COC(=O)c1ccc(OCC2c3cc(OC)c(OC)cc3CCN2C(=O)Cc2ccccc2)cc1 (stereo not drawn) -27.8%
Cn1cnnc1SCC(=O)Nc1ccc(C#N)cc1 -11%
CN(CC(=O)NCc1ccccc1)S(=O)(=O)c1ccc2[nH]c3c(c2c1)CCCC3 -11.8%
CCc1ccccc1NC(=O)C1(C)Cc2ccccc2C(=O)O1 (stereo not drawn) -13.2%
COc1ccccc1N1CCN(c2ncnc3c2cnn3-c2cccc(Cl)c2)CC1 -6.29%
CC(C)(C)C1CCc2c(sc(NC(=O)c3ccc(Cl)cc3)c2C(=O)NCc2ccco2)C1 (stereo not drawn) -12.4%
COc1ccc(-c2cn3nc(N4CCCC(C(=O)Nc5cc(C)cc(C)c5)C4)sc3n2)cc1 (stereo not drawn) -5.27%
CC(C)[C@H](C(=O)Nc1ccc(C(=O)NO)cc1)c1ccccc1 162%
C#C[C@]1(OC(C)=O)CC[C@H]2[C@@H]3CCC4=C[C@@H](OC(C)=O)CC[C@@H]4[C@H]3CC[C@@]21C -24.8%
CCN(CC)S(=O)(=O)c1ccc(C(=O)N2CC(=O)Nc3ccc(F)cc3C2c2ccccc2)cc1 (stereo not drawn) -15.6%
O=C(C1CCN(S(=O)(=O)c2ccc(Br)s2)CC1)N1CCN(c2ccccc2)CC1 -12.7%
CC(C)(C)OC(=O)N1CCC(c2c(C(=O)NCCc3ccccc3)cnn2-c2ccc(F)cc2)CC1 -23.5%
COc1ccc(CCN2C(=O)NC(NS(=O)(=O)c3ccc(NC(C)=O)cc3)(C(F)(F)F)C2=O)cc1OC (stereo not drawn) -18.9% [at 11.5 µM]
COc1cc(NC(=O)c2c(C)oc3c2C2=NCCN2C=N3)cc(OC)c1OC -18.1%
CCc1ccc(-c2nn(CC(=O)NCc3ccccc3)c3c2cnc2ccc(F)cc23)cc1 44.5%
CN(C)c1ccc(/C=C(\C#N)c2nc(-c3ccc(Cl)c(Cl)c3)cs2)cc1 -3.97%
COc1cc(NC(=O)COCc2cc(-c3ccc4c(c3)OCO4)on2)cc(OC)c1 -10.4%
Cc1ccc(-n2c(=O)c3c(cnn3C)n(Cc3ccccc3F)c2=O)cc1 -26.9%
Cn1c2ccccc2c2cnn(CC(=O)Nc3ccccc3C(F)(F)F)c(=O)c21 8.35%
Cc1ccccc1-c1noc(-c2ccc(N3CCOCC3)c([N+](=O)[O-])c2)n1 14.5%
CCN(CC)C(=O)c1sc2c(c1C)c(=O)n(-c1ccc(OC)cc1OC)c(=O)n2CC(=O)c1ccc(Cl)cc1 -17.5%
CCn1cc(S(=O)(=O)c2ccccc2)c(=O)c2cc(F)c(N3CCN(c4ccccc4)CC3)cc21 -17%
COc1cc(NC(=O)c2oc3c(c2C)-c2nn(Cc4cccc(Cl)c4)cc2CC3)cc(OC)c1 6.45%
Cc1ccc(Cn2c(CN3CCC(C(=O)NCCc4ccccc4)CC3)cc3ccccc32)cc1 -20.6%
N#Cc1ccc(C(=O)Nc2ccc3c(c2)N(C2CCCC2)C(=O)c2ccccc2S3)cc1 -28.2%
CCc1nn(CC(=O)Nc2ccc(N(CC)CC)cc2C)c(=O)c2cc3sccc3n12 8.76%
CC(C)Sc1ncc(Cl)c(C(=O)N(Cc2ccc(N(C)C)cc2)C2CCS(=O)(=O)C2)n1 (stereo not drawn) 0.738%
Cc1ccc(-c2noc(-c3ccccc3NC(=O)C3CC(=O)N(c4ccccc4C)C3)n2)cc1 (stereo not drawn) 29.7%
CC(C)Cn1c(=O)c2ccccc2n2c(CCC(=O)NC(C)c3ccccc3)nnc12 (stereo not drawn) 7.84%
CCOc1ccc(C2C(C(=O)Nc3ccccc3)=C(C)Nc3nc(SCc4cc(C)ccc4C)nn32)cc1 (stereo not drawn) -6.82%
COc1cc(-c2nc(Cn3nnc(C(=O)Nc4ccc(C)cc4C)c3C)c(C)o2)cc(OC)c1OC 1.67%
Cc1oc(-c2ccccc2F)nc1CS(=O)(=O)CC(=O)NCCc1ccc(Cl)cc1 -31%
COc1ccc(N2CCN(c3oc(-c4ccc(COc5cccc(C)c5)o4)nc3C#N)CC2)cc1 -22.4%
Cc1ccc(NC(=O)CN(C)S(=O)(=O)c2ccc3[nH]c4c(c3c2)CCCC4)c(Cl)c1 -1.75%
Cc1cccc(NC(=O)c2sc3nc(N4CCOCC4)c4c(c3c2N)CC(C)(C)OC4)c1 37%
COc1ccccc1C(=O)Nc1ccc(OCc2cc(=O)n3ccsc3n2)cc1 6.2%
O=C(CSc1nc2c([nH]c3ccccc32)c(=O)n1-c1ccccc1)Nc1ccc2c(c1)OCCO2 -32.7%
Cc1ccc(C)c2sc(N3CCN(C(=O)C(C)(C)C)CC3)nc12 0%
CC1=C(C(=O)Nc2ccc(C)cc2Cl)C2(CCCCCC2)OC1=O -5.79%
CCC(=O)c1cc2c(cc1NC(=O)c1ccccc1F)OCCO2 12.4%
COc1ccc([C@@H]2CNC(=O)C2)cc1OC1CCCC1 268%
CCOc1ccc(CCNC(=O)c2ccc(-n3c(C)cc4c3CCC(C)C4)cc2)cc1OCC (stereo not drawn) -21.2%
CCN(CC)CCNC(=O)Nc1ccc2c(c1)N(Cc1ccccc1)C(=O)c1ccccc1S2 -22.8%
NC(=O)c1ccc2nc(-c3ccc(Oc4ccc(Cl)cc4)cc3)[nH]c2c1 -3.54%
COc1ccc(N2CC(NC(=O)c3ccc(S(=O)(=O)N4CCOCC4)cc3)CC2=O)cc1OC (stereo not drawn) -17.1%
CCCCNC(=O)C1CCC(CNS(=O)(=O)c2ccc(Cl)cc2)CC1 (stereo not drawn) -1.57%
CNC1CCC(N(Cc2cccc(-c3ccncc3)c2)C(=O)c2sc3ccccc3c2Cl)CC1 (stereo not drawn) -16.6%
CC(=O)NCCn1c(SCC(=O)Nc2ccc(C)cc2)nc2ccccc2c1=O 14.6%
COc1cccc(-n2c(-c3cccc(F)c3)nc3c(cnn3-c3ccc(C)cc3)c2=O)c1 -27.5%
COc1ccccc1CNC(=O)CC(c1ccc(OC)c(OC)c1)N1Cc2ccccc2C1=O (stereo not drawn) -6.56%

Potency, active:
CCN(Cc1ccccc1)S(=O)(=O)c1cc(C(=O)Nc2cc(Cl)cc(Cl)c2)ccc1F 25.1 µM
